# Measured values from patent publication US20180015075A1, “METHODS AND COMPOSITIONS FOR TREATMENT OF VENOUS MALFORMATION” (Children's Hospital Medical Center, priority 2016, published 2018).
# System: TIE2, c-ABL, AKT, PLCγ1, ERK phosphorylation in HUVEC-TIE2-L914F
# Assay: Immunoblotting (Western blot) of treated cells
# Type: cell-based, human
# Conditions: 500 nM Ponatinib for 1 hour
compound,measurement,value
"Cc1ccc(C(=O)Nc2ccc(CN3CCN(C)CC3)c(C(F)(F)F)c2)cc1C#Cc1cnc2cccnn12 [Ponatinib, 3-(2-imidazo[1,2-b]pyridazin-3-ylethynyl)-4-methyl-N-[4-[(4-methyl-1-piperazinyl)methyl]-3-(trifluoromethyl)phenyl]-benzamide]",activation of TIE2 downstream effector AKT,reduced activation
